System: S. aureus Newman
Assay: Active immunization with Eap or Emp and staphylococcal challenge (FIG. 13A-B)
Conditions: active immunization day 0 and 11, challenge 1×10^7 CFU S. aureus Newman, five days following infection; FIG. 13B

B1: Emp: recombinant His-tagged staphylococcal envelope associated protein Emp (SEQ ID NO:2) purified from E. coli, vaccine antigen (protein, listed as Staphylococcus aureus)
chain: MKKKLLVLTMSTLFATQIMNSNHAKASVTESVDKKFVVPESGINKIIPAYDEFKNSPKVNVSNLTDNKNFVASEDKLNKIADSSAASKIVDKNFVVPESKLGNIVPEYKEINNRVNVATNNPASQQVDKHFVAKGPEVNRFITQNKVNHHFITTQTHYKKVITSYKSTHVHKHVNHAKDSINKHFIVKPSESPRYTHPSQSLIIKHHFAVPGYHAHKFVTPGHASIKINHFCVVPQINSFKVIPPYGHNSHRMHVPSFQNNTTATHQNAKVNKAYDYKYFYSYKVVKGVKKYFSFSQSNGYKIGKPSLNIKNVNYQYAVPSYSPTHYVPEFKGSLPAPRV
modifications: His-tag
B1 was tested, and the “reduction in staphylococcal load within kidney tissues” value was 0.959 log10 CFU g^−1.

B2: Eap: recombinant His-tagged staphylococcal envelope associated protein Eap (SEQ ID NO:4) purified from E. coli, vaccine antigen (protein, listed as Staphylococcus aureus)
chain: MKFKSLITTTLALGVLASTGANFNNNEASAAAKPLDKSSSSLHHGYSKVHVPYAITVNGTSQNILSSLTFNKNQNISYKDLEDRVKSVLKSDRGISDIDLRLSKQAKYTVYFKNGTKKVIDLKAGIYTADLINTSEIKAININVDTKKQVEDKKKDKANYQVPYTITVNGTSQNILSNLTFNKNQNISYKDLEDKVKSVLESNRGITDVDLRLSKQAKYTVNFKNGTKKVIDLKSGIYTANLINSSDIKSININVDTKKHIENKAKRNYQVPYSINLNGTSTNILSNLSFSNKPWTNYKNLTSQIKSVLKHDRGISEQDLKYAKKAYYTVYFKNGGKRILQLNSKNYTANLVHAKDVKRIEITVKTGTKAKADRYVPYTIAVNGTSTPILSDLKFTGDPRVGYKDISKKVKSVLKHDRGIGERELKYAKKATYTVHFKNGTKKVININSNISQLNLLYVQDIKKIDIDVKTGTKAKADSYVPYTIAVNGTSTPILSKLKISNKQLISYKYLNDKVKSVLKSERGISDLDLKFAKQAKYTVYFKNGKKQVVNLKSDIFTPNLFSAKDIKKIDIDVKQYTKSKKNK
modifications: His-tag
With B2 the “reduction in staphylococcal load within kidney tissues” value was 1.939 log10 CFU g^−1.
